Reference: patent US20230234998A1 (ACCELERON PHARMA, published 2023)

Target: T1, human BMP9 (human, UniProt Q9UK05 320-429)
T1 construct: Bought from R&D Systems
T1 sequence (looked up): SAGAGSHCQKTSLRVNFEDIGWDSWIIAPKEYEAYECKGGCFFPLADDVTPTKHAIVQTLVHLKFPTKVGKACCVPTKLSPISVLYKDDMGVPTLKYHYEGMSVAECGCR
Assay: SPR (BIACORE), TWSG-Fc captured with anti-Fc antibody, ligand injected, 37 C
From the text: Previous studies have determined that TWSG, or its nonmammalian homolog Tsg, binds with high affinity to BMP2, BMP4, and BMP7 (Oelgeschläger et al., 2000, Nature 405:757-763; Scott et al., 2001, Nature 410:475-478; Chang et al., 2001, Nature 410:483-487). Since these studies have not systematically evaluated TWSG (or Tsg) binding to other TGFβ superfamily ligands, Applicants used surface plasmon resonance to investigate and characterize such binding. In an initial qualitative screen, recombinant murine TWSG (mTWSG; R&D Systems, Minneapolis, MN) was covalently immobilized on a BIACORE™ CM5 chip, and more than 30 ligands generated in-house or obtained from R&D Systems were injected individually over the captured mTWSG to characterize their degree of binding at room temperature. Based on the results of this screen, Applicants subjected selected ligands to quantitative characterization of binding to human TWSG fusion protein at physiologic temperature. For this analysis, TWSG-Fc was expressed in CHO cells, purified as described in Example 1, captured on a BIACORE™ chip with anti-Fc antibody, and tested by surface plasmon resonance with the following ligands at 37° C.

B1: human TWSG-Fc fusion protein (full-length human TWSG attached at its C-terminus to a human IgG1 Fc domain with a minimal linker) (Fc fusion)
chain: CNKALCASDVSKCLIQELCQCRPGEGNCSCCKECMLCLGALWDECCDCVGMCNPRNYSDTPPTSKSTVEELHEPIPSLFRALTEGDTQLNWNIVSFPVAEELSHHENLVSFLETVNQPHHQNVSVPSNNVHAPYSSDKEHMCTVVYFDDCMSIHQCKISCESMGASKYRWFHNACCECIGPECIDYGSKTVKCMNCMFTG[no letters for human IgG1 Fc and a few adjoining residues]
notes: a homodimer appears only in embodiments and claims; also called hTWSG-hFc; TWSG-hFc
kon: ~5.7e+06 M⁻¹ s⁻¹
